Test results: the supplement of paper PMC7826260
This is one part of the list. Each Rep nickase domain was tested in vitro on the same pool of single strands at 3 µM enzyme and 37 °C for 1 h; the strands have 90 letters, of which the middle is given. The score is log2 (uncut reads / reads without enzyme); more negative means more cut, near 0 not cut, and no call is made. Reads are scaled to the total; uncut strands gain when others are lost, and binding without cutting may add a little.

Legend:
Assay in all cases: uncleaved DNA left, log2 of reads against the no-enzyme library (log2 ratio); higher = less cleavage (more negative = more Rep cleavage of the k-mer); sequences stand for … in CTCGTCCG…ACCGGAGA
[1] = tested on: T1, Rep nickase domain of Muscovy duck circovirus
T1 sequence (residues 1-111 of Rep, tag left off): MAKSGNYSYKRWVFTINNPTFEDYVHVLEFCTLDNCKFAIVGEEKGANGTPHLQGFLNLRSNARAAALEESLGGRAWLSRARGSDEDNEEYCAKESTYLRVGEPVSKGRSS
Method: (§1)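 A pool of 90-nt single-stranded DNAs with seven random bases just before the constant AC of the nick site (name = the seven bases) was cut by 3 µM recombinant His6-SUMO-tagged Rep nickase domain (300 nM DNA, 50 mM HEPES pH 8.0, 50 mM NaCl, 1 mM MnCl2, 1 h, 37 °C, three replicates). Uncut DNA was amplified and sequenced.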

[2] = tested on: T2, Rep nickase domain of banana bunchy top virus
T2 sequence (residues 1-94 of Rep, tag left off): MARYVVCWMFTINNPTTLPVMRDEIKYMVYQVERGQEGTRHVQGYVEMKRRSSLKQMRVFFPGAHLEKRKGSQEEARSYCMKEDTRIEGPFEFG
Method: as §1

[3] = tested on: T3, Rep nickase domain of cabbage leaf curl virus
T3 sequence (residues 1-116 of Rep, tag left off): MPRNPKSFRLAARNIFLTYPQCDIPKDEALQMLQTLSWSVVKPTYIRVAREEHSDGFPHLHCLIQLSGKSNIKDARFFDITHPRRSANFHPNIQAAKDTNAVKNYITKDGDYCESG
Method: as §1

[4] = tested on: T4, Rep nickase domain of chickpea chlorotic dwarf virus
T4 sequence (residues 1-124 of Rep, tag left off): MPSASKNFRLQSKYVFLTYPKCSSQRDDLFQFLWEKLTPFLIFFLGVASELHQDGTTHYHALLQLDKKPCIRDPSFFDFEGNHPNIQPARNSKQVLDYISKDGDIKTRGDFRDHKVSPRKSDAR
Method: as §1

[5] = tested on: T5, Rep nickase domain of faba bean necrotic yellows virus
T5 sequence (residues 1-98 of Rep, tag left off): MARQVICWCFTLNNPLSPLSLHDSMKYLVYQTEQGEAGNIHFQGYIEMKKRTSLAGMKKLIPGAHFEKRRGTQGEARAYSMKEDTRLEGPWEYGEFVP
Method: as §1

[6] = tested on: T6, Rep nickase domain of maize striate mosaic virus
T6 sequence (residues 1-117 of Rep, tag left off): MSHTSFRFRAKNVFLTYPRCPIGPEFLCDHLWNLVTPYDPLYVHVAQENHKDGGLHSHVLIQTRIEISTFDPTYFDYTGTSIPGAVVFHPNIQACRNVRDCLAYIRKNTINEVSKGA
Method: as §1

[7] = tested on: T7, Rep nickase domain of porcine circovirus 2
T7 sequence (residues 2-116 of Rep, tag left off): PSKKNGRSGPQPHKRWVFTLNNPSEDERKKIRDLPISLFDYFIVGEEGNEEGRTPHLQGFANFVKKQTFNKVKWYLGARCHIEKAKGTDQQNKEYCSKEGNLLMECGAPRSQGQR
Method: as §1

[8] = tested on: T8, Rep nickase domain of tomato yellow leaf curl virus
T8 sequence (residues 1-136 of Rep, tag left off): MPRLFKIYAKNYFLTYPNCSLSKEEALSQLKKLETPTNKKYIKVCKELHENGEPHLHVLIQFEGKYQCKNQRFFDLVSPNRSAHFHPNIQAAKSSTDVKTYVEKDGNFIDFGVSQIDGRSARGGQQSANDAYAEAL
Method: as §1

[9] = tested on: T9, Rep nickase domain of wheat dwarf virus
T9 sequence (residues 1-137 of Rep, tag left off): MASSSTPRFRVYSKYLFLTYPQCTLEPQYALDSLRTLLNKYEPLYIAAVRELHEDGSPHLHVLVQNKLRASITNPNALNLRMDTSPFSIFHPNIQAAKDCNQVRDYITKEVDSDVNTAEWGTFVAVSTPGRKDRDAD
Method: as §1

Sequence	uncleaved DNA left (log2) [1]	uncleaved DNA left (log2) [2]	uncleaved DNA left (log2) [3]	uncleaved DNA left (log2) [4]	uncleaved DNA left (log2) [5]	uncleaved DNA left (log2) [6]	uncleaved DNA left (log2) [7]	uncleaved DNA left (log2) [8]	uncleaved DNA left (log2) [9]
ACGGACT	-0.0165	-0.122	0.122	-0.105	-0.0817	0.76	-0.0467	-0.0906	-0.058
TGTTGGG	0.0465	-0.0264	-0.639	-0.715	0.0649	-0.769	0.203	0.0792	-0.103
AATAACG	0.0173	0.0385	-0.614	-0.159	0.128	-1.01	0.262	0.138	-0.013
TGCGGCA	0.0165	-0.00829	-0.131	0.0556	-0.0415	-0.247	0.0208	0.00895	-0.0265
GCGTTCA	-0.0141	-0.00267	0.136	0.0105	-0.00694	0.302	-0.171	-0.00906	-0.077
ATATTTG	0.0492	-0.0374	-0.74	-0.669	0.0847	-1.24	0.0351	-0.067	-0.0637
TCTCACA	-0.107	-0.074	0.0585	-1.44	0.00957	-0.281	-0.0984	0.0759	-0.121
ATGATTG	0.0743	-0.0476	-0.0829	0.623	-0.0182	-0.167	0.092	0.0548	0.0878
AACCCTA	0.0388	-0.0409	0.377	-0.542	0.0563	0.598	-0.259	0.0264	0.0555
AGGGCCG	-0.111	0.0352	-0.449	-0.434	-0.053	-0.705	0.183	-0.0125	-0.0636
TGAGAGT	0.205	0.166	0.258	0.475	0.0845	0.575	0.0801	0.0708	0.103
TTCCTCC	0.0532	0.0809	0.235	0.208	-0.0581	0.795	-0.0243	0.102	0.179
AGATCTG	0.0516	0.139	0.0911	0.727	0.093	1.54	0.108	-0.038	0.176
GGCTACG	0.072	0.0444	-0.00914	-0.0965	-0.0195	-0.131	0.197	0.00709	0.0266
TGCGGCT	0.057	-0.147	0.0149	0.282	-0.144	1.16	0.0971	-0.119	-0.0282
AGATCCG	0.0142	0.0323	-0.147	0.458	0.0187	-0.648	0.16	-0.117	0.0756
GCTGCTA	-0.0774	-0.0328	-0.206	-0.0599	-0.101	0.0599	-0.108	-0.0804	0.0114
TCCCTTG	-0.224	-0.143	-0.435	-1.18	-0.325	-1.26	0.107	-0.0915	-0.0912
TGGGGGT	-0.00397	-0.0983	0.335	1.37	0.0286	1.8	0.181	-0.17	-0.129
ACGCCCA	-0.229	-0.0511	-0.229	-0.782	-0.18	-0.477	-0.115	-0.0869	-0.101

Sequence	uncleaved DNA left (log2) [1]	uncleaved DNA left (log2) [2]	uncleaved DNA left (log2) [3]	uncleaved DNA left (log2) [4]	uncleaved DNA left (log2) [5]	uncleaved DNA left (log2) [6]	uncleaved DNA left (log2) [7]	uncleaved DNA left (log2) [8]	uncleaved DNA left (log2) [9]
AAGGCTT	0.0507	-0.0907	0.255	0.623	-0.00928	1.5	-1.88	-0.0739	0.0491
CAGGCTG	0.00107	0.103	0.271	1.38	0.0724	1.71	0.116	-0.119	-0.0711
ACTAAGG	0.00121	0.115	-0.285	0.205	0.0882	-0.822	0.153	0.0958	0.148
GCATCCA	-0.0191	-0.00729	0.0787	-0.194	-0.0151	0.125	0.0768	0.00985	0.0517
GTGTTAC	-0.139	0.0787	0.0339	0.636	-0.0623	1.78	-0.281	-0.028	-0.169
CCATCGT	0.000745	-0.084	-0.688	-0.892	0.069	-1.18	0.0382	0.0625	-0.165
GCTCATG	0.0734	0.0981	-0.206	0.0887	0.0553	-0.788	0.164	0.156	0.0899
AGAGTAA	-0.0491	-0.0173	0.0899	0.241	0.0512	0.0493	-0.256	0.0144	0.0187
TTGCGCT	-0.0415	-0.176	-0.826	-0.0607	0.0154	-0.794	0.0888	0.0817	-0.117
CGGCACA	0.206	0.131	0.157	0.536	0.0146	0.966	0.00349	0.0504	0.199
GCACGCT	-0.0834	-0.0623	-0.421	-1.46	0.0722	-0.726	0.0288	0.00285	-0.0843
CTGGGAA	0.197	0.0448	0.68	1.38	0.159	1.56	0.318	0.18	0.234
GTATCTT	-0.536	-0.0331	0.186	0.559	0.00608	1.74	-0.649	-0.0411	-0.0148
GTCCCGG	-0.0574	0.00512	0.453	1.23	-0.0388	2.06	0.184	-0.00643	0.0471
GTGGCGG	0.117	-0.0341	0.351	0.831	-0.0705	1.03	0.102	-0.101	-0.0388
AGGCCTA	-0.042	0.00822	0.404	0.534	0.062	1.09	-0.0447	-0.00096	0.0604
CAACTAG	-0.0285	0.00196	-0.813	-0.857	0.0225	-1.1	0.0523	0.053	-0.188
GAAACGT	0.0918	0.143	0.265	0.219	0.0625	0.356	0.196	0.163	0.163
CAAGTAA	0.00516	0.105	-0.184	-0.299	0.0295	-0.731	-0.036	0.000981	0.11
AACGGCG	0.0394	0.0893	-0.725	0.509	0.124	-0.458	0.255	0.0768	0.0226

Sequence	uncleaved DNA left (log2) [1]	uncleaved DNA left (log2) [2]	uncleaved DNA left (log2) [3]	uncleaved DNA left (log2) [4]	uncleaved DNA left (log2) [5]	uncleaved DNA left (log2) [6]	uncleaved DNA left (log2) [7]	uncleaved DNA left (log2) [8]	uncleaved DNA left (log2) [9]
TCACATA	-0.022	-0.0261	-0.0233	-1	-0.0999	-0.53	-0.0555	-0.0443	-0.0131
CCATTCG	-0.0938	-0.109	-0.165	1.29	-0.0393	0.9	0.1	0.168	-0.184
AGATCGC	-0.154	-0.0266	-0.37	-0.496	-0.121	-1.06	0.00483	-0.1	-0.0912
CTTATTC	-0.0786	-0.0321	-0.0707	-0.279	-0.0387	-0.977	-0.0914	-0.0654	0.0211
TTCTTCG	-0.0387	-0.103	-0.904	-0.27	-0.123	-1.29	-0.0223	-0.214	-0.245
GCAGCGT	0.0357	-0.0339	-0.586	-0.301	0.0401	-0.678	0.189	0.0419	-0.0118
AACATGG	0.00117	0.00532	-0.508	-0.461	-0.00267	-1.01	0.106	0.0237	-0.106
TGTGACA	0.0948	0.0119	0.532	1.11	-0.0516	1.84	0.156	0.144	0.206
CGGCTTC	-0.06	-0.078	0.00412	0.244	-0.0608	0.536	0.0154	-0.0272	-0.0364
GTACCTT	0.0273	0.0404	0.267	0.583	0.027	1.72	-0.0394	0.161	0.131
ATCGATA	0.0492	-0.016	-0.113	-0.872	0.0256	-0.318	-0.0829	-0.0927	0.0187
GAGGCGC	-0.00285	0.000376	-0.215	-0.0392	0.0101	-0.301	0.133	0.0125	-0.00085
GCCCACG	0.19	0.0905	-0.356	-0.0657	0.179	-0.535	0.165	0.0893	0.0187
GCCATAT	-0.0385	0.0711	0.238	0.247	-0.0827	-0.147	0.0061	0.0215	-0.0016
TCATTCT	-2.23	-0.0469	-1.94	-2.9	-0.0362	-1.35	-1.94	0.0104	-0.142
ATTAAGT	0.033	0.00219	-0.0537	-0.558	-0.019	-1.08	-1.18	0.0214	-0.0419
ACTCGGT	0.172	0.149	-0.0978	-0.0541	0.157	-0.417	0.116	0.101	0.123
TAGGTAC	0.0494	0.14	0.0899	0.427	-0.0871	0.358	0.137	0.0499	0.0818
CGGGGCG	-0.106	-0.0391	-0.624	0.352	-0.165	-0.17	0.116	-0.0634	-0.0607
AGACGCC	0.106	-0.00143	0.594	1.2	0.064	1.28	0.132	0.0109	0.138
